Data on 22 molecules can be found in PubChem BioAssay AID1645887 (National Center for Advancing Translational Sciences (NCATS), 2021).

Several values for one entry are separate records, joined by “and”; a condition that tells them apart may be missing. Equal values may be shown once. The whole screen tested about 16,000 compounds, of which about 40 (0.2%) were called active. Inconclusive results (about 1%) are left out. Calls follow the shape of the dose curve; as a rule, active = well fitted activation curve with a large enough effect; inconclusive = small, poorly fitted or top-dose-only effect, or another doubt; inactive = no such curve, though single readings can be large or run the other way. The list shows a part of the results.
% is scaled to controls: 0 for no effect and ±100 for the full control effect.

Sequence of UniProt Q8WZA2 (Q8WZA2 whole entry, looked up): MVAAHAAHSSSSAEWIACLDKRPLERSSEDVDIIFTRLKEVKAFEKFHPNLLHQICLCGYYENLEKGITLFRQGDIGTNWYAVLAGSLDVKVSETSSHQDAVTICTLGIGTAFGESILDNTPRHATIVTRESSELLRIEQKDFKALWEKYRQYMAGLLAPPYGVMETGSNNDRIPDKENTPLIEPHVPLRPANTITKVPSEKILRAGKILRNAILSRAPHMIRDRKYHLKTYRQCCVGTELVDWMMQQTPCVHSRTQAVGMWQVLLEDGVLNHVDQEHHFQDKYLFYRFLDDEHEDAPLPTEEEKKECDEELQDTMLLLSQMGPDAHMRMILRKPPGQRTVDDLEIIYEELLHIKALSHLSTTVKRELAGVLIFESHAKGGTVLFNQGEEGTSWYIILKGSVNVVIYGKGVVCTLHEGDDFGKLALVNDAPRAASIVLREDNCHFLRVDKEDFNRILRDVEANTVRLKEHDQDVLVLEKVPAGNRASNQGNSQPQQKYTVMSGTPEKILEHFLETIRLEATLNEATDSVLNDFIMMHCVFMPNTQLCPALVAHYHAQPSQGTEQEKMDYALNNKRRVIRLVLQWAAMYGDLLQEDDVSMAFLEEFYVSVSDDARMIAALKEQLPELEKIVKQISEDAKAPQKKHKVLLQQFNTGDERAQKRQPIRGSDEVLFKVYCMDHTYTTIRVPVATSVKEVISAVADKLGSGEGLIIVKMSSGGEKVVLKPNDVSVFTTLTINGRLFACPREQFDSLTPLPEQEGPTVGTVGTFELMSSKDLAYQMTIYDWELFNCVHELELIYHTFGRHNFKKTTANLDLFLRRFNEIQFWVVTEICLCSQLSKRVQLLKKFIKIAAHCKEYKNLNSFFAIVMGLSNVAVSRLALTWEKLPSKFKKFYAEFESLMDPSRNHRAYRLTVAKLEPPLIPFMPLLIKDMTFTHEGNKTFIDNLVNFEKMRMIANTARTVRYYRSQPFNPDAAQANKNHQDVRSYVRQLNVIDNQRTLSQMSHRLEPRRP

The assay has as its target Rap guanine nucleotide exchange factor 4 (Homo sapiens) (UniProt Q8WZA2). Nature of the assay: Validation qHTS for agonist of cAMP-regulated guanine nucleotide exchange factor 4 (EPAC2).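 Also: exchange makes BODIPY-GDP fluorescence drop when released from Rap1B; series mostly up to about 150 µM.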 Particulars: EPAC2 Rap1B BODIPY-GDP exchange, fluorescence; activation: stronger effect = higher value. The gist of the method:
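Fluorescent exchange assay: 100 nM EPAC2 with 250 nM RAP1B-BODIPY-GDP and 50 uM GDP; compound added, 5 min at room temperature, then read (ex 480/em 540 nm) every 5 min for 30 min. Normalized to 6.5 mM cAMP agonist control.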
With `COc1cc(N)c(Cl)cc1C(=O)N[C@H]1CCN(CCCOc2ccc(F)cc2)C[C@@H]1OC`, the activation was inactive: -25.9%.
Under `CCOC(=O)c1c(C)cc(O)cc1O` stands inactive: -9.12%; under `CN(C)CCCN1c2ccccc2Sc2ccc(Cl)cc21`, inactive: 4.79% and inactive: -8.89% and inactive: 2.9%; under `CCCC1(C)C(C#N)(C#N)C1(C#N)C#N`, inactive: -2.01%.
Consider `O=C(c1ccco1)N1CCC2(CC1)CN(C(c1ccccc1)c1ccccc1)C2`, for which the activation is inactive: -1.08%.
With `CCCCCCCCCCCCCCCCOC[C@H](COP(=O)([O-])OCC[N+](C)(C)C)OC(=O)NC` the figure was inactive: -4.58%; with `O=C(NCCc1nnc2n1CCN(Cc1ccc(F)cc1)CC2)c1ccc(F)cc1`, inactive: -19%; with `COc1ccccc1N1CCN(CCCCN2C(=O)CCC2=O)CC1`, inactive: -12% and inactive: 6.17%.
In the case of `C[N+]1(CC(=O)c2ccc(F)cc2)CCc2ccccc2C1` (configuration not stated), the activation is inactive: -10.1%.
For the molecule `CC(=O)N1CCC[C@H]1C(=O)NCC1Cc2cc(F)cc(-c3ccc(F)c(C)c3)c2O1` (some centres not stated), the activation is inactive: -18.9%.
Under `CCCCOc1cc(CC2CNC(=O)N2)ccc1OC` (configuration not stated) stands inactive: -13.5% and inactive: -4.21% and inactive: -11.5%; under `Cc1cccc(CNc2ccnc(-c3ccccc3CN(C)C)n2)c1`, inactive: -13.9%; under `CC(=O)OC1C[C@]2(C)C(C(C)=O)CCC2C2CCC3=CC(=O)CC[C@@]3(C)C12` (some centres not stated), inactive: -12.4%.
In the case of `O=C1NC(=O)/C(=C/c2ccc3c(c2)OC(F)(F)O3)S1`, the activation is inactive: -11.6%.
With `COc1cc(-c2noc(C)c2C#Cc2ccsc2)cc(OC)c1OC` the figure was inactive: -10.2%.
Under `CN(C)c1ncc2ncc(=O)n(Cc3cccs3)c2n1` stands inactive: -8.5%; under `N[C@@H](CCS(=O)O)C(=O)O`, inactive: -8.06% and inactive: 4.82%; under `O=c1[nH]cnc2c1ncn2[C@@H]1O[C@H](CO)[C@@H](O)[C@H]1O`, inactive: -17.8%.
With `CC(C)NC(=O)N1CC[C@@]2(CCCN(S(=O)(=O)c3ccccc3)C2)C1`, the activation is inactive: -5.62%.
As for `COc1cc2c(cc1O)CCN[C@]21CS[C@@H]2c3c(OC(C)=O)c(C)c4c(c3[C@H](COC1=O)N1[C@@H]2[C@H]2c3c(cc(C)c(OC)c3O)C[C@@H]([C@@H]1O)N2C)OCO4`, the activation was inactive: -34.6% and inactive: -15%.
Under `COc1ccc(Oc2ncc3nc(-c4ccccc4)c(=O)n(C[C@H]4CCCO4)c3n2)cc1` stands inactive: 1.71%; under `C[C@@H]1CN(Cc2ccc3c(c2)CN(Cc2cccn2-c2ccc(Cl)cn2)CCO3)C[C@H](C)O1`, inactive: -13.3%.
